From PubChem BioAssay AID360 (National Center for Advancing Translational Sciences (NCATS), 2006)
Among all 48,000 compounds or so, about 550 (1.1%) were called active. Another 4% or so got no clear call; they are omitted. Cut-off read from the data, not from the text of the source: active = potency below about 15 µM; inconclusive = mostly about 16 µM to 33 µM; inactive = weaker than that. Some of the results follow.

biological target: Lysosomal acid glucosylceramidase (Homo sapiens) (UniProt P04062); assay: Glucocerebrosidase; settings: purified enzyme, resorufin glucoside fluorescence (screen aimed at inhibitors), 20 min;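 note: the screen sought inhibitors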
Chain of UniProt P04062 (P04062 whole entry, looked up): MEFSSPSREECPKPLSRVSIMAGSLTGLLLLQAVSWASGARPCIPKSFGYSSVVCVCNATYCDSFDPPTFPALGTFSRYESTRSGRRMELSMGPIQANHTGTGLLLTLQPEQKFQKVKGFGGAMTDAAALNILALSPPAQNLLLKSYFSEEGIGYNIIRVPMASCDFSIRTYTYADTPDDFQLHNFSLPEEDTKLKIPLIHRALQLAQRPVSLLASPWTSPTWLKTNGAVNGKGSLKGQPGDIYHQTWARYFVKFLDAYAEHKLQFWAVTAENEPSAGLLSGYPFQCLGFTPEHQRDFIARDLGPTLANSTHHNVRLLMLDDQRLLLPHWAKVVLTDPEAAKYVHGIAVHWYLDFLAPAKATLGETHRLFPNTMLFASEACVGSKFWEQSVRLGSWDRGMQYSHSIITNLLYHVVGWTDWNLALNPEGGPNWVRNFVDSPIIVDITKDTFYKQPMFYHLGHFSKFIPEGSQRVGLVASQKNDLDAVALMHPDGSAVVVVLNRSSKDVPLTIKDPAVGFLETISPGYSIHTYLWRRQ
Summary of the method: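 Compounds titrated against 0.2 nM normal enzyme, 30 uM resorufin beta-D-glucopyranoside substrate, citrate/phosphate buffer with taurocholate and tween-20, pH 5.9. Reaction ran 20 min at room temperature; fluorescence (Ex 548/Em 600) gave AC50.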
Potency is the fitted concentration of half-maximal effect.

Potency, inactive:
CCOc1ccccc1NC(=O)c1ccc2nccnc2c1 > 76.9 µM, COc1ccc(-c2nnc3n2N=C(C)CS3)cc1OC > 76.9 µM, CCOC(=O)N1CCN(S(=O)(=O)Cc2ccccc2)CC1 > 76.9 µM, CCn1c(SCC(=O)NCCOC)nc2sc3c(c2c1=O)CCCC3 > 76.9 µM, Cc1c(NC(=O)CN2C(=O)c3cccc4cccc2c34)c(=O)n(-c2ccccc2)n1C > 76.9 µM, COc1cccc(-c2cc(C(=O)NCc3ccc(Cl)cc3)no2)c1 > 76.9 µM, CCCCn1c(N)c(Sc2ccc(C)cc2)c(=O)[nH]c1=O > 76.9 µM, O=C(NCCc1ccccc1)c1cc2ncc(Br)cn2n1 > 76.9 µM, O=C(NCc1ccc2c(c1)OCO2)c1cc(S(=O)(=O)N2CCCCC2)ccc1F > 76.9 µM, O=C(Nc1ccc(Cl)cn1)Nc1cccs1 > 76.9 µM, Cc1cc(N2CCOCC2)nc(SCC(=O)c2ccccc2)n1 > 76.9 µM, COc1ccc(OCc2nn3c(Cn4cnc5ccccc54)nnc3s2)cc1 > 76.9 µM, O=C1CCCN1c1ccc(S(=O)(=O)N2CCN(c3ccccn3)CC2)cc1 > 76.9 µM, O=C(NCc1ccco1)C(NS(=O)(=O)c1cccc2nsnc12)c1ccccc1 (configuration not stated) > 76.9 µM, CCOC(=O)c1cc2c(=O)n(C)c3ccccc3c2s1 > 76.9 µM, CN1CCc2c(sc3c2C(=O)NC(c2cccs2)N3)C1 (configuration not stated) > 76.9 µM, CC(=O)OC1=C(C#N)Cn2ccc3cccc1c32 > 76.9 µM, CCCSc1nnc2[nH]c(=O)cc(N)n12 > 76.9 µM, Cc1ccc2[nH]c(=O)c(CN(CC3CCCO3)C(=O)c3ccco3)cc2c1 (configuration not stated) > 76.9 µM, O=C(CN1C(=O)c2ccccc2S1(=O)=O)N1CCOCC1 > 76.9 µM, CSCC[C@H](NC(=O)OC(C)(C)C)c1nnc(SCC=C(C)C)o1 > 76.9 µM, O=C(Cn1cnc2c(nnn2Cc2ccc(F)cc2)c1=O)NC1CCCC1 > 76.9 µM, O=c1cc(-c2ccccc2)nc2nc(COc3ccccc3)[nH]n12 > 76.9 µM, COCCCNc1ncnc2c1cnn2-c1ccc(C)cc1C > 76.9 µM, COc1ccc(N2C(=O)CSC23C(=O)N2CCCc4cccc3c42)cc1 (configuration not stated) > 76.9 µM, COc1ccc(Cc2nnc(SCC(=O)NCc3ccco3)o2)cc1 > 76.9 µM, Nc1nnc(CC(=O)NCc2ccccc2)s1 > 76.9 µM, COc1ccccc1OC(C)C(=O)O (configuration not stated) > 76.9 µM, COc1cccc(-n2c(C)nc3c(cnn3-c3ccc(C)cc3)c2=O)c1 > 76.9 µM, O=C(c1cnn2c(C(F)F)cc(-c3ccccc3)nc12)N1CCOCC1 > 76.9 µM, CC(C)c1ccc(NC(=O)C(c2ccc3c(c2)OCO3)N2CCN(C(=O)c3ccco3)CC2)cc1 (configuration not stated) > 76.9 µM, COc1c(Cl)ccc(Cl)c1C(=O)NC(=O)N1CCOCC1 > 76.9 µM, O=C(CCn1nc(-c2ccccc2)ccc1=O)N1CCOCC1 > 76.9 µM, CCc1ccc(S(=O)(=O)NCCc2csc(-c3ccccc3)n2)s1 > 76.9 µM, CCOc1ccc(CCNC(=O)CCc2nc(-c3ccc(C)cc3)no2)cc1OCC > 76.9 µM, Cc1ccc(/C=C/C2=Cc3c(sc(NC(=O)CSc4n[nH]c(N)n4)c3C#N)C(C)(C)C2)o1, CCC(Oc1ccc2ccccc2c1)C(=O)O (configuration not stated) > 76.9 µM, O=c1[nH]c2ccccc2n1CCCOc1ccccc1 > 76.9 µM, COc1ccc2oc(=O)c(C(=O)N3CCN(c4ccccc4F)CC3)cc2c1 > 76.9 µM, O=C(CSc1nnc(CNC(=O)c2cccs2)o1)Nc1cccc(C(F)(F)F)c1 > 76.9 µM, CC(=NCCCn1ccnc1)C1=C(O)c2ccccc2C1=O > 76.9 µM, O=c1oc2c(CN3CCOCC3)c(O)c(Cl)cc2c2c1CCCC2 > 76.9 µM, CC1(C)Cc2cccc(OCC(=O)O)c2O1 > 76.9 µM, COc1cc(Nc2nc(SCC#N)nc3ccccc23)cc(OC)c1OC > 76.9 µM, O=C(CSc1nc2cc(Cl)ccc2s1)N1CCN(C(=O)c2ccco2)CC1 > 76.9 µM, Cc1nc2nc[nH]n2c(=O)c1CCC(C)C > 76.9 µM, N#CCC(=O)NCC1(c2ccccc2)CCCC1 > 76.9 µM, COc1ccc(CN2C(=O)c3cccnc3C2Nc2ccc(OC)c(Cl)c2)cc1 (configuration not stated) > 76.9 µM, O=C(CCC(=O)Nc1nnc(C2CCCCC2)s1)NCc1cccs1 > 76.9 µM, CCC(=O)N1c2ccc(S(=O)(=O)N(CCO)Cc3ccccc3)cc2CC1C (configuration not stated) > 76.9 µM, Cn1c(=O)[nH]c(=O)c2c1nc(N1CCN(Cc3ccccc3)CC1)n2CCCc1ccccc1 > 76.9 µM, CC1CC(=O)C2=C(C1)Nc1ccccc1N(C(=O)COc1ccccc1)C2c1ccco1 (configuration not stated) > 76.9 µM, COc1cccc(OC)c1C(=O)Nc1ccc(S(=O)(=O)Nc2cc(C)nc(C)n2)cc1 > 76.9 µM, CCOC(=O)c1c(C)c(C(=O)N2CCN(c3cccc(Cl)c3)CC2)c(C)n1C > 76.9 µM, CCCCC12CN3CC(C)(CN(C1)C31C(=O)N(C)c3ccc(C)cc31)C2=O (configuration not stated) > 76.9 µM, CCCCNC(=O)CC(=O)Nc1ccccc1C(=O)O > 76.9 µM, Nc1nonc1/C(=N/O)N1CCCC1 > 76.9 µM, COC(=O)c1cc(C(=O)OC)n(Cc2ccc(F)cc2)n1 > 76.9 µM, CCn1c(SCC(=O)c2ccc(Cl)cc2)nnc1C(C)C > 76.9 µM, COc1ccc2[nH]c(=O)c(CN(Cc3ccccc3)Cc3nnnn3CC3CCCO3)cc2c1 (configuration not stated) > 76.9 µM, CC1=C(C(=O)NCc2ccccc2)C(c2ccc(C)o2)n2ncnc2N1 (configuration not stated) > 76.9 µM, CCSc1nc(C)cc(Oc2ccc(=O)n(C)n2)n1 > 76.9 µM, O=C(CN1C(=O)CSc2ccccc21)NC1CCCC1 > 76.9 µM, O=C(Cn1cnc2c(nnn2Cc2ccccc2F)c1=O)N1CCN(c2ccccc2)CC1 > 76.9 µM, C=CCn1c(O)c(C(CC)=NCCN2CCOCC2)c(=O)[nH]c1=O > 76.9 µM, Cc1ccc(NC(=O)C2CCCN(S(=O)(=O)c3c(C)noc3C)C2)cc1F (configuration not stated), CC(=O)N1CCN(c2ccc(NCc3cccs3)cc2)CC1, CCCc1nc2ccccc2c(=O)n1/N=C/c1c(C)[nH]n(-c2ccc(C)cc2)c1=O > 76.9 µM, O=C(CNC(=O)c1ccc(Br)o1)Nc1cccc(-c2cnc3ccccc3n2)c1 > 76.9 µM, CCN1C(=O)c2ccc(C(=O)O)cc2C1=O > 76.9 µM, COc1ccc(-c2cc(C(F)(F)F)nc(SCCC(=O)Nc3cc(C)on3)n2)cc1 > 76.9 µM, CC(=O)c1c(C)[nH]c(C(=O)OCC(=O)Nc2ncc(Cl)c(C)c2Cl)c1C > 76.9 µM, CC1CCN(S(=O)(=O)c2ccc(S(=O)(=O)N3CCN4CCCC4C3)cc2)CC1 (configuration not stated) > 76.9 µM, CC(C)c1nnc(NC(=O)CCC(=O)N2CCN(Cc3ccccc3)CC2)s1 > 76.9 µM, CCn1nnc(NC(=O)COc2cc(C)ccc2C(C)C)n1 > 76.9 µM, CCOC(=O)CC1=Nc2ccccc2NC(=O)C1 > 76.9 µM, CCOC(=O)c1ccc(S(=O)(=O)N2CCC(C(=O)OCC)CC2)cc1 > 76.9 µM, O=C(O)c1nc2ccccc2nc1C(=O)O > 76.9 µM, CS(=O)(=O)N(CC(=O)N1CCCCCC1)c1ccc2c(c1)OCCO2 > 76.9 µM, O=C(O)c1ccccc1SCc1ccc2c(c1)OCO2 > 76.9 µM, O=S(=O)(c1cccc(Cl)c1Cl)N1CCCCC1 > 76.9 µM, Cc1nn(C)c(C)c1CNC(=O)c1cnn2c1NC(c1ccccc1)CC2C(F)(F)F (configuration not stated) > 76.9 µM, CCCC(C(=O)NCC1CCCO1)N(Cc1ccco1)C(=O)CNS(=O)(=O)c1ccc(F)cc1 (configuration not stated) > 76.9 µM, CN(C)CCC(=O)c1ccc2c(c1)OCO2 > 76.9 µM, CCN1CCN(CCC(=O)Nc2ccccc2OC)CC1 > 76.9 µM, Cc1coc2cc3oc(=O)c4c(c3cc12)CCC4 > 76.9 µM, CCOc1ccc(NC(=O)C(C)O)c(NS(=O)(=O)c2ccc(CCNC(C)=O)cc2)c1 (configuration not stated) > 76.9 µM, c1ccc2c(c1)nc(N1CCN(C3CCCCC3)CC1)c1nnnn12 > 76.9 µM, CC(C)(C)c1csc(NC(=O)CSc2nc3ccccc3c(=O)[nH]2)n1 > 76.9 µM, CSCC[C@H](NC(=O)CCn1nnc2ccccc2c1=O)C(=O)O > 76.9 µM, CCCCN(CC)CCNS(=O)(=O)c1ccc2c(c1)oc(=O)n2C > 76.9 µM, CCN(CCO)c1ccc(-n2c(N)c(C(=O)OC)c3nc4ccccc4nc32)cc1 > 76.9 µM
